{"source": "PubChem BioAssay AID1347120", "about": "(National Center for Advancing Translational Sciences (NCATS), 2019)", "note": "Hit rate of the full screen: of about 390,000 compounds, about 930 (0.24%) were called active. This list was built around the results that the source calls inconclusive (neither active nor inactive); the mix of calls is not that of the screen. Calls follow the shape of the dose curve; as a rule, active = well fitted activation curve with a large enough effect; inconclusive = small, poorly fitted or top-dose-only effect; inactive = no such curve, though single readings can be large or run the other way. Where the call is inconclusive, the potency comes from a doubtful curve fit. Potency is read from the fitted curve at half-maximal effect; tags tell the direction and shape of the fitted curve."}
{"experiment": "qHTS for Suppressors of FUS Proteinopathy: Primary screen using FUS-linked yeast assay; also: nearly all actives have a fitted effect of over 55% in size", "conditions": "S. cerevisiae FUS-expressing, OD600, 24 h; Potency: growth rescue; series mostly up to 76.6 µM", "description": "Several widespread neurodegenerative diseases, including Alzheimer disease, Huntington disease, Frontotemporal Lobar Degeneration (FTLD) and Amyotrophic Lateral Sclerosis (ALS), share a common pathological feature, namely accumulation of specific protein aggregates in diseased tissue. These diseases which is associated with protein misfolding (proteinopathies) have become increasingly problematic as the population ages and life expectancies are extended. Most proteinopathies are currently incurable, a situation confounded by the fact that the basis of neurodegeneration is generally poorly understood. There exists urgent and significant need to find therapeutics that can inhibit the toxicity associated with protein aggregation. A novel approach to understand the underlying mechanisms of neurodegenerative diseases has recently emerged in which the disease conditions are modeled in the yeast (Saccharomyces cerevisiae), a tractable eukaryotic organism with conserved protein quality control mechanisms. Yeast offers quick and reliable genetic manipulations and can be easily tailored to high-throughput screening (HTS).\nFor this project, a yeast model of the FUS proteinopathies (a spectrum of neurodegenerative diseases that include ALS and a subtype of FTLD) was generated and employed. The cytoplasmic accumulation of the DNA/RNA-binding protein FUS (also known as TLS) is causative to both familial and sporadic forms of ALS and FTLD. This yeast model recapitulates neuronal pathology by showing severe cytotoxicity associated with cytoplasmic accumulation of FUS aggregates and a specific interaction between FUS and TDP-43, another ALS-associated protein. […] Specifically, the cellular accumulation of misfolded FUS that disrupts RNA homeostasis in both yeast and higher eukaryotes. This model was validated to be suitable for quantitative HTS (qHTS) use for finding genetic or chemical factors that restore growth. […] Identified compounds that inhibits FUS-yeast toxicity is flagged, re-acquired, and validated for further investigation and optimization.\nNIH Chemical Genomics Center [NCGC]\nNIH Molecular Libraries Probe Production Centers Network [MLPCN]\nAssay Submitter (PI): Frank Shewmaker PhD, Uniformed Services University of the Health Sciences\nCompound CP55940 was used as the positive control. Column 1 was treated with CP55940 titration from 92uM (final concentration, 1:2 dilution), while Column 2 was treated with top dose 92uM. Columns 3 and 4 were treated with DMSO only as negative control to assess background and noise signal.\nFour hundred fifty microliter of cultured yeast (in 20mL rich medium) provided by Dr. Shewmaker lab was incubated at 30C at 99% humidity for 3hr. The culture was then spun down at 4000rpm for 5min and the cell pellet was resuspended in 2mL of Sdmin Media + ALU(330) + 2.5% Raffinose. One hundred microliter of the suspension was added to 900uL of water and OD of the solution was obtained. Twenty mL of responding medium (provided by Shewmaker lab) + 2.5% raffinose was added to ensure cell density of 0.1; the solution was incubated overnight. Working cell solution (FUS-yeast in Sdmi + Sdmi + 1X ALU + 2% galactose media) was prepared (final OD at 0.005) and 3uL was dispensed in a 1536-well Aurora high based clear bottom assay plates. Controls and library compounds (at various final concentrations from 40uM to 0.32uM) were added using a 1536-well pin array using the Kalypsys pin-tool. The plates were then incubated for 24hrs in a cell-culture incubator (30C; 99% humidity). Absorbance at 600nm was then read using the PerkinElmer ViewLux plate reader."}
{"smiles": "COCCCNC(=O)CCn1c(=O)c2ccccc2n(CC(=O)Nc2cc(Cl)ccc2C)c1=O", "Potency": "inactive"}
{"smiles": "CCCCCSc1nnc2c(n1)OC(CC)Nc1ccc(Br)cc1-2", "note": "(stereo not drawn)", "Potency": "inactive"}
{"smiles": "CCOc1ccc(C(=O)Nc2ccccc2C(=O)OCc2cc(=O)n3nc(C4CC4)sc3n2)cc1", "Potency": "inactive"}
{"smiles": "CC(C)c1ccc(N2CCN(C(=O)c3ccccc3NC(=O)/C=C\\C(=O)O)CC2)cc1", "Potency": "inconclusive: 2.82 µM [activator, full curve]"}
{"smiles": "COc1ccc(OC)c(C2=Nn3c(nnc3-c3cc(OC)c(OC)c(OC)c3)SC2)c1", "Potency": "inconclusive: 31.6 µM [activator, single point]"}
{"smiles": "CN(Cc1ccccc1)C(=O)c1ccc(NC(=O)Cc2ccc(NC(=O)C3CCCN(C(=O)C4CCC4)C3)cc2)cc1", "note": "(stereo not drawn)", "Potency": "inconclusive: 28.2 µM [activator, single point]"}
{"smiles": "c1ccc2c(C[n+]3csc4ccccc43)cccc2c1", "Potency": "inconclusive: 39.8 µM [activator, partial curve, poor fit]"}
{"smiles": "CCOC(=O)N1CCc2c(sc(NC(=O)C3COc4ccccc4O3)c2C(N)=O)C1", "note": "(stereo not drawn)", "Potency": "inconclusive: 3.55 µM [activator, full curve]"}
{"smiles": "O=C1NC[C@@H](CCCCN2C[C@H](Cc3ccc(O)cc3)N(CCC3CCCCC3)C(=O)C2=O)N(CCc2ccc(O)cc2)C1=O", "Potency": "inconclusive: 35.5 µM [activator, single point]"}
{"smiles": "CC1CCCCN1CCCNC(=O)c1ccc2c(c1)sc1nc(-c3ccc(F)cc3)cn12", "note": "(stereo not drawn)", "Potency": "inactive"}
{"smiles": "CCOc1ccc(CN(C(=O)c2nc(SC)ncc2Cl)C2CCS(=O)(=O)C2)cc1", "note": "(stereo not drawn)", "Potency": "inactive"}
{"smiles": "O=C(Nc1ccc(-c2cn3c(n2)SCC3)cc1)c1ccco1", "Potency": "inconclusive: 28.2 µM [activator, single point]"}
{"smiles": "COC(=O)c1ccccc1OCCCCN1CC(C)OC(C)C1", "note": "(stereo not drawn)", "Potency": "inactive"}
{"smiles": "COc1ccc(C(=O)N2CCCCC2c2cc(C(=O)NCc3ccc(Cl)c(Cl)c3)no2)cc1", "note": "(stereo not drawn)", "Potency": "inconclusive: 35.5 µM [activator, single point]"}
{"smiles": "CCOc1ccc(NC(=O)[C@H]2O[C@@H]3OC(C)(C)O[C@@H]3[C@H]3OC(C)(C)O[C@H]32)cc1", "Potency": "inactive"}
{"smiles": "Cc1cccc(NC(=O)CSc2nc(=O)n(Cc3ccco3)c3c2CCC3)c1C", "Potency": "inactive"}
{"smiles": "CC1(C)Cc2ccccc2C(/C(=N\\Nc2cccc(Cl)c2)C(N)=O)=N1", "Potency": "inconclusive: 11.2 µM [activator, partial curve]"}
{"smiles": "OC1(c2ccccc2F)CCN(Cc2nnc(-c3ccccc3)o2)CC1", "Potency": "inconclusive: 50.1 µM [activator, partial curve, poor fit]"}
{"smiles": "COc1ccc(OC)c(NC(=O)CSc2nc3n[nH]c(C)c3c(=N)n2-c2cccc(Cl)c2C)c1", "Potency": "inconclusive: 39.8 µM [activator, single point]"}
{"smiles": "CCOC(=O)Cn1cc(CN2CCS(=O)(=O)N(Cc3ccc(OC)cc3)C(C(=O)OC)C2)nn1", "note": "(stereo not drawn)", "Potency": "inactive"}
{"smiles": "CC1(CC(=O)N/N=C/c2ccc(OCc3ccc(Cl)cc3Cl)cc2)OCCCO1", "Potency": "inconclusive: 31.6 µM [activator, single point]"}
{"smiles": "O=S1(=O)C=C(Sc2nc3ccccc3s2)c2ccccc21", "Potency": "inactive"}
{"smiles": "CC1=NOC(=O)/C1=C\\c1ccc(-c2ccc(Br)cc2)o1", "Potency": "inactive"}
{"smiles": "CCc1ccc(S(=O)(=O)c2cnc3ccc(OC)cc3c2N2CCCC(C)C2)cc1", "note": "(stereo not drawn)", "Potency": "inconclusive: 35.5 µM [activator, single point]"}
{"smiles": "Cc1c(Cl)ccc2c1NC(=O)[C@]21[C@@H]2C(=O)N(Cc3ccccc3)C(=O)[C@@H]2[C@@H]2CCCN21", "Potency": "inconclusive: 50.1 µM [activator, single point]"}
{"smiles": "C[C@H](NS(=O)(=O)c1ccc([N+](=O)[O-])cc1)C(=O)NCCNC(=O)[C@@H](C)NS(=O)(=O)c1ccc([N+](=O)[O-])cc1", "Potency": "inactive"}
{"smiles": "C=CC[C@H](CC(=O)N(CCO)Cc1ccccc1)C(=O)N[C@@H](C)COC(=O)[C@H](CC=C)CC(=O)OC(C)(C)C", "Potency": "inconclusive: 11.2 µM [activator, partial curve]"}
{"smiles": "CCOC(=O)C1CCN(C(=O)CN2C(=O)CSc3ccc(S(=O)(=O)N4CCOCC4)cc32)CC1", "Potency": "inactive"}
{"smiles": "Cc1c(NC(=O)COC(=O)Cc2ccc(Cl)cc2)c(=O)n(-c2ccccc2)n1C", "Potency": "inconclusive: 0.891 µM [activator, full curve, poor fit]"}
{"smiles": "CCCCC[C@H](C)N1C[C@H](COCc2ccccc2)Oc2cc(N3CC[C@H](O)C3)ccc2S1(=O)=O", "Potency": "inconclusive: 31.6 µM [activator, single point]"}
{"smiles": "C=CC[C@@H](CC(=O)N[C@H](CO)Cc1ccccc1)C(=O)N[C@@H](COC(=O)[C@H](CC=C)CC(=O)OC(C)(C)C)Cc1ccccc1", "Potency": "inconclusive: 15.8 µM [activator, partial curve, poor fit]"}
{"smiles": "COc1ccc(-c2csc(Nc3ccc(S(N)(=O)=O)cc3)n2)cc1", "Potency": "inconclusive: 2.51 µM [activator, full curve, poor fit]"}
{"smiles": "Cc1cc(/C=N/Nc2nc(N3CCOCC3)nc(N3CCOCC3)n2)c(C)n1-c1ccccc1", "Potency": "inconclusive: 35.5 µM [activator, single point]"}
{"smiles": "Cc1c(C(=O)OCC2CCCCC2)[nH]c2c1C(=O)CC(c1ccc(F)cc1)C2", "note": "(stereo not drawn)", "Potency": "inactive"}
{"smiles": "Cc1cc(Cl)ccc1C(=O)C1CCCN(C(=O)c2ccc3c(c2)OCO3)C1", "note": "(stereo not drawn)", "Potency": "inconclusive: 22.4 µM [activator, partial curve]"}
{"smiles": "COc1ccc(NC(=O)CN(C)C(=O)CC2CCCC2)cc1", "Potency": "inactive"}
{"smiles": "CC(C)Oc1ccc(C(=O)NC2(C(F)(F)F)N=C3SCCN3C2=O)cc1", "note": "(stereo not drawn)", "Potency": "inconclusive: 35.5 µM [activator, single point]"}
{"smiles": "COc1cccc(-c2nc(NCCN3CCOCC3)c3ccccc3n2)c1O", "Potency": "inconclusive: 31.6 µM [activator, single point]"}
{"smiles": "Cc1cccc(C(=O)N2CCc3cc(CNC(=O)c4ccc(Br)o4)ccc32)c1", "Potency": "inconclusive: 50.1 µM [activator, single point]"}
{"smiles": "CCN(C(=O)COC(=O)c1ccccc1NCc1ccco1)c1c(N)n(Cc2ccccc2)c(=O)[nH]c1=O", "Potency": "inconclusive: 35.5 µM [activator, single point]"}
{"smiles": "CCc1ccc(-c2cc(C(=O)Nn3cnnc3)c3ccccc3n2)cc1", "Potency": "inconclusive: 28.2 µM [activator, partial curve, poor fit]"}
{"smiles": "O=C(Nc1ccccc1N1CCN(C(=O)c2ccccc2)CC1)c1cc(Br)ccc1Cl", "Potency": "active: 25.1 µM"}
{"smiles": "COc1ccc(-c2csc(C(O)(c3ccccc3)C(F)(F)F)n2)cn1", "note": "(stereo not drawn)", "Potency": "inconclusive: 28.2 µM [activator, single point]"}
{"smiles": "O=C(Nc1nnc(-c2ccc(F)cc2)o1)c1cccc([N+](=O)[O-])c1", "Potency": "inactive"}
{"smiles": "O=C(c1ccc2c(c1)CCN2S(=O)(=O)c1ccccc1)N1CCN(c2cccc(Cl)c2)CC1", "Potency": "inconclusive: 31.6 µM [activator, single point]"}
{"smiles": "CC1CCC(NC(=O)c2ccc3c(c2)N(Cc2ccccc2)C(=O)c2ccccc2S3(=O)=O)CC1", "note": "(stereo not drawn)", "Potency": "inconclusive: 28.2 µM [activator, partial curve, poor fit]"}
{"smiles": "COc1ccc([N+](=O)[O-])cc1-c1[nH]c(-c2ccc(C(=O)O)cc2)nc1-c1ccccc1", "Potency": "inconclusive: 50.1 µM [activator, single point]"}
{"smiles": "CCN(Cc1ccccc1)C(=O)c1cc2c(OC)c(OC)c(OC)cc2[nH]1", "Potency": "inconclusive: 15.8 µM [activator, partial curve, poor fit]"}
{"smiles": "Cc1ccc(NC(=O)CSC2=Nc3ccccc3C3=NC(Cc4ccccc4)C(=O)N23)cc1C", "note": "(stereo not drawn)", "Potency": "inconclusive: 39.8 µM [activator, single point]"}
{"smiles": "CCN1CCN(CCOc2ccc(Cl)cc2)CC1", "Potency": "inactive"}
{"smiles": "C[C@@H]1CCCCO[C@@H](CN(C)S(=O)(=O)c2ccc(F)cc2)[C@@H](C)CN([C@H](C)CO)C(=O)c2cc(NC(=O)c3ccccc3)ccc2O1", "Potency": "inconclusive: 17.8 µM [activator, partial curve, poor fit]"}
{"smiles": "CCCCN(C(=O)c1ccc(OC)c([N+](=O)[O-])c1)c1c(N)n(CCC)c(=O)[nH]c1=O", "Potency": "inconclusive: 20 µM [activator, partial curve, poor fit]"}
{"smiles": "CCc1ccc(Nc2nnc(SCC(=O)NC(=O)c3cccn3C)s2)cc1", "Potency": "inconclusive: 31.6 µM [activator, partial curve, poor fit]"}
{"smiles": "COCCn1c(CCC(=O)Nc2ccc(C)c(Cl)c2)nc2cccnc21", "Potency": "inactive"}
{"smiles": "Cc1cc(NC(=O)CCC(=O)N(CC(=O)NC2CCCC2)c2ccc(C)c(F)c2)no1", "Potency": "inactive"}
{"smiles": "O=C(CSCC(=O)N1CCN(c2ccccc2)CC1)Nc1nc(-c2ccc(Cl)s2)cs1", "Potency": "inactive"}
{"smiles": "COc1ccc(NC(=O)Cn2c(=O)n(Cc3ccco3)c(=O)c3cc(OC)c(OC)cc32)cc1", "Potency": "inactive"}
{"smiles": "COc1ccc(Cn2c(CCC(=O)Nc3cccc(OC)c3)nc3cccnc32)cc1", "Potency": "inactive"}
{"smiles": "Cc1ccc(S(=O)(=O)NCC(c2ccc(N(C)C)cc2)N2CCc3ccccc32)cc1C", "note": "(stereo not drawn)", "Potency": "inconclusive: 50.1 µM [activator, single point]"}
{"smiles": "CCN1C(=O)c2ccccc2Sc2ccc(NC(=O)Nc3ccccc3OC)cc21", "Potency": "inconclusive: 39.8 µM [activator, single point]"}
{"smiles": "COC(=O)Cc1c(C)c2cc3c(c(C)c2oc1=O)OCN(CCc1ccccc1F)C3", "Potency": "inconclusive: 50.1 µM [activator, single point]"}
{"smiles": "Cc1ccc(Nc2cc(C)c(O)c(C)c2)cc1", "Potency": "inactive"}
{"smiles": "COC(=O)C1=C(C)NC(=O)/C1=C\\c1cc(C)n(-c2ccccc2C)c1C", "Potency": "inconclusive: 28.2 µM [activator, partial curve, poor fit]"}
